Assay results: article PMC4336329 (PLoS ONE, 2015)
About 2,200 (0.71%) of roughly 310,000 compounds showed an effect of 50% or more. Effects have a minus sign here. Some of the results follow.

These molecules were tested against human ether-à-go-go-related gene (hERG) potassium channel (human, UniProt Q12809) (assay: primary screen, population patch clamp on CHO cells stably expressing hERG).
Chain of human ether-à-go-go-related gene (hERG) potassium channel (Q12809 whole entry, looked up): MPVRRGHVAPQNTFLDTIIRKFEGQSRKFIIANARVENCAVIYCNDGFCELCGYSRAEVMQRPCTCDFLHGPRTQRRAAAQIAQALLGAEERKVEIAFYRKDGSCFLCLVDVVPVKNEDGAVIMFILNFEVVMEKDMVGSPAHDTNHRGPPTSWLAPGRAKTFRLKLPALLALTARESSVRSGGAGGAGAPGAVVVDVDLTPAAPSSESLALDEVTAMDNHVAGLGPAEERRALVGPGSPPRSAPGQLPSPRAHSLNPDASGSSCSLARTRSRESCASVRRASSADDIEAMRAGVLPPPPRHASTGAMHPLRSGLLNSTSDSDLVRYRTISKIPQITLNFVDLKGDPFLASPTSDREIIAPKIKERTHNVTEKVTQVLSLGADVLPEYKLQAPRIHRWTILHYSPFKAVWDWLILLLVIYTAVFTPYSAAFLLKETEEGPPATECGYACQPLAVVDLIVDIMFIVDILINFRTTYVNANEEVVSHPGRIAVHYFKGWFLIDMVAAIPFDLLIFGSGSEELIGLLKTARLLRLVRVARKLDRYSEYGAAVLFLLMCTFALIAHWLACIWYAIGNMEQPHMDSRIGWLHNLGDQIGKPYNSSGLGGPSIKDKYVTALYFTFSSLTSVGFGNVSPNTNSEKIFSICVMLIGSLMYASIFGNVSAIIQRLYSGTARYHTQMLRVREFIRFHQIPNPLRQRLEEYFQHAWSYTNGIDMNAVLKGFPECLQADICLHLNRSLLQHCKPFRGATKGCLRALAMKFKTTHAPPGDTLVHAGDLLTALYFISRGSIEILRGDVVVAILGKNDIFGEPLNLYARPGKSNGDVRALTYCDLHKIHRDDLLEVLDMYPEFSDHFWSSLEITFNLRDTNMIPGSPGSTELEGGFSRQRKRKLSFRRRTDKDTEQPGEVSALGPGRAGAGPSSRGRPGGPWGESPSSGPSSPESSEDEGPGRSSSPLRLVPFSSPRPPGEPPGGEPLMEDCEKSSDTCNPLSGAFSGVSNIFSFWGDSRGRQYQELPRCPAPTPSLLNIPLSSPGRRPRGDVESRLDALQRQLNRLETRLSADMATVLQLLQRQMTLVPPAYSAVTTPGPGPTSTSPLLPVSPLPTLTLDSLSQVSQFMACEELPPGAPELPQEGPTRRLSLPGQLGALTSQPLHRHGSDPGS

SMILES | hERG current change (%, negative = inhibition) at 1uM [%]
S=c1[nH]nc(Cc2cccc3ccccc23)n1-c1ccccc1 | 9.48
Brc1ccc2ncnc(Nc3cccc4ccccc34)c2c1 | -1.67
N#Cc1c(-c2ccccc2)nc2n(-c3ccccc3)nc(C(=O)Nc3ccccc3)n2c1=O | 21.1
CCCCc1ccc(S(=O)(=O)N2CCN(C(=O)c3ccco3)CC2)cc1 | 2.16
Cc1ccc(C(C(=O)NC2CCCC2)N(Cc2cccs2)C(=O)c2csnn2)o1 (stereo not drawn) | 3.01
CCc1ccc(Nc2n[n+](-c3ccccc3)c(-c3ccc(SC)cc3)s2)cc1.[Cl-] | 3.59
COc1ccc(Cc2cnc(N)s2)cc1 | 14.3
CO/N=C(/CNC(=O)c1ccccc1Cl)c1ccc(Cl)cc1 | 0.0343
O=[N+]([O-])c1ccc(COc2ccc(-c3[nH]ncc3-c3ccccc3)c(O)c2)cc1 | 4.58
CC(=O)N1CCc2cc(S(=O)(=O)N3CCCCC3C)ccc21 (stereo not drawn) | 17.6
COCCC(=O)Nc1ccc2c(c1)CN(C(=O)CSC)CC2 | 8.87
Cc1c(C)c2ccc(OCC(=O)N3C[C@H]4C[C@@H](C3)c3cccc(=O)n3C4)c(C)c2oc1=O | 10.1
O=C(COC(=O)CCc1ccccc1)Nc1cc([N+](=O)[O-])ccc1F | 9.65
O=C(C1CC(=O)N(c2ccccc2)C1)N1CCC(c2nc3ccccc3[nH]2)CC1 (stereo not drawn) | 18.6
COC(=O)C(C)Oc1cc(OC(C)C(=O)OC)c2c(C)c(Cl)c(=O)oc2c1 (stereo not drawn) | 8.01
COc1cc(C(=O)NCc2ccncc2)cc(OC)c1OC | 13
O=C(NCc1cccnc1)C1c2ccccc2C(=O)N1C1CCCC1 (stereo not drawn) | 14.7
CCOc1ccc(Oc2ccc(S(=O)(=O)N3CCOCC3)cc2NC(=O)C2=COCCO2)cc1 | 11.6
CCCCOC(=O)Nc1ccc(N2CCCCC2)cc1 | -4.51
O=C(NCCCO)c1ccc(CSc2nc3ccccc3[nH]2)cc1 | 11.1
CC1CCCC(C)N1C(=O)Cn1c(SCC(=O)Nc2ccc3c(c2)OCO3)nc2ccccc21 (stereo not drawn) | 4.44
COc1ccc(NC(=O)COc2ccc(N(C)S(=O)(=O)c3ccc(Cl)cc3)cc2)cc1OC | -0.0686

SMILES | hERG current change (%, negative = inhibition) at 1uM [%]
c1ccc(Cn2cc(-c3ccccc3)cn2)cc1 | 8.29
CS(=O)(=O)c1nc(S(=O)(=O)c2ccc(Cl)cc2)c(NCc2ccccn2)s1 | 11.2
COC(=O)c1nn(-c2ccc(OC)cc2)c(=O)cc1Sc1ccc(C)cc1 | 1.56
CC(C)N(Cc1nccn1C)C(=O)CCc1nnc(CCCc2ccccc2)o1 | 5.13
O=C(CN(C(=O)c1ccccc1Cl)C1CCCCC1)Nc1ccc(Cl)c([N+](=O)[O-])c1 | 9.85
CCCCc1c(C)nc2ccc(OC)cc2c1SCCC(=O)O | 4.08
COc1cccc(NC(=O)N(Cc2cc3cc(C)cc(C)c3[nH]c2=O)CC2COCCO2)c1 (stereo not drawn) | 32.6
Cc1ccc(N(CC(=O)NC2CCCC2)C(=O)CNC(=O)c2cccs2)c(C)c1 | 8.17
CN(C)c1nc(N/N=C/c2ccccc2O)nc(Nc2ccc(F)cc2)n1 | 14
CCOc1ccc(-n2c(=O)c3c4c(sc3n(CC(=O)NCc3ccco3)c2=O)CCC4)cc1 | 6.98
O=C(CCc1ccc(O)cc1)N/N=C/c1coc2ccccc2c1=O | 12
CCN1CCN(CCCOc2ccccc2-c2ccccc2)CC1.O=C(O)C(=O)O | -16.6
COc1ccccc1NC(=S)NNC(=O)c1nn(C)c(C)c1Br | 23.1
Cc1cc(C(=O)COC(=O)c2ccc(O)cc2O)c(C)n1C(C)C | 7.29
CC(C)C1C(C#N)=C(N)Oc2n[nH]c(C(C)(C)C)c21 (stereo not drawn) | -6.48
CS(=O)(=O)n1nc(-c2cccnc2)nc1NCc1ccccc1 | 20
COc1ccc(N2CCN(C(=O)C3CCC(Cn4c(=S)[nH]c5ccccc5c4=O)CC3)CC2)cc1 (stereo not drawn) | -14.7
O=C1CC2(CCN(C(=O)c3cccc(Cl)c3)CC2)Oc2ccccc21 | -46.6
COc1ccccc1OCCCOc1ccc(C)cc1Br | 7.82
CC1(CCC(=O)N2CCCC(N3CCN(c4cccc(C(F)(F)F)c4)CC3)C2)CC1 (stereo not drawn) | 6.53
CCNC(=S)N1CCN(CCN=CC2=C(O)CC(c3cccs3)CC2=O)CC1 (stereo not drawn) | -5.42
CC1(C)CCCN(C(=O)c2ccc3c(c2NCCO)C(=O)c2ccccc2C3=O)C1 | -4.49

SMILES | hERG current change (%, negative = inhibition) at 1uM [%]
N#CCc1nn2c3c(cnc2c1C#N)C(=O)CCC3 | 11.7
CC(=O)N/C(=C\c1ccccc1)C(=O)OCC(=O)N(C)C1CCCCC1 | 12.2
COc1ccc(NC(=O)C2CCN(C(=O)[C@@H]3Cc4ccccc4CN3)CC2)cc1 | 7.63
Nc1c(C(=O)Nc2ccccc2)sc2ncc([N+](=O)[O-])cc12 | 11
CC(C)CCN(C(=O)CNC(=O)c1ccco1)C(C(=O)NC1CCCCC1)c1cccnc1 (stereo not drawn) | 9.89
COc1cc(NC(=O)CN2C(=O)c3ccccc3Sc3ccc(C(=O)N4CCOCC4)cc32)cc(OC)c1OC | 2.5
CCOC(=O)C1(Cc2ccc(OC)cc2)CCN(C(=O)c2cncs2)CC1 | 6.55
Cc1ccc(NS(=O)(=O)c2csc(C(N)=O)c2)cc1C | 16.8
O=C(CSc1nc(-c2ccccc2)nc2ccc(F)cc12)Nc1ccc(C(=O)O)cc1 | 11
COC(=O)C(C)(C)ONC(=O)Nc1ccccc1Br | 13.8
C=CCOc1ccc(Br)cc1CNCCCN1CCOCC1.Cl | 2.9
S=C(NCc1ccccc1)Nc1cccc2cnccc12 | 5.98
Cc1c(C(=O)NC(=S)Nc2cccnc2)cccc1[N+](=O)[O-] | 17.9
Cc1cc(C)nc(-n2nc(C)cc2NC(=O)c2cc3ccccc3oc2=O)n1 | -3.26
Cc1cccc(NC(=O)/C(=C\c2ccc([N+](=O)[O-])o2)NC(=O)c2ccc(Cl)cc2)c1 | 5.6
Cc1nc2c(C(=O)N3CCC4(CC3)OCCO4)cnn2c(C)c1Cc1cccc(Cl)c1 | -6.07
Cc1ccc(Nc2cccccc2=O)cc1 | 13.6
Cc1ccc(N/C(N)=N/c2nc(C)cc(N3CCCCC3)n2)c(C)c1 | -79
CCN1CCN(c2ncnc3c2nnn3Cc2ccccc2)CC1 | 5.1
O=C(CCN1CCN(S(=O)(=O)c2ccc(F)cc2)CC1)Nc1ccccc1F | 8.76
O=Cc1cn(Cc2ccccc2)nc1-c1cccnc1 | 9.12
COc1ccc(NS(=O)(=O)c2ccc(NC(=S)NC(=O)c3cccc(F)c3)cc2)nn1 | 7.07

SMILES | hERG current change (%, negative = inhibition) at 1uM [%]
Cc1ccccc1-n1c(SC(C)C(N)=O)nnc1-c1cccnc1 (stereo not drawn) | 3.99
Cc1ccc(N(C)C(=O)CCS(=O)(=O)c2cc3c(cc2Cl)NC(=O)CO3)cc1 | 6.3
CC(=O)c1sc2nc(-c3ccccc3)cc(C)c2c1N | 12.7
COc1ccc(Oc2nc(C)nc3c2oc2ccccc23)cc1 | 12.3
CCOc1cc(CNCc2ccccc2)ccc1OCC(=O)NC1CCCCC1 | -2.06
CC(C)(C)OC(=O)NC1CNNC1=O (stereo not drawn) | 16.9
COc1ccc(S(=O)(=O)C(C#N)c2nc3ccccc3nc2N2CCC(C)CC2)cc1 (stereo not drawn) | 11.2
COc1cccc(CN2CCNC(=O)C2CC(=O)NCCc2nc(C)c(C)s2)c1OC (stereo not drawn) | 16.8
CCCN(CCC)C(=O)c1cn(CC)c2ccc(S(=O)(=O)N3CCCCC3)cc2c1=O | 7.37
CCN(c1ccccc1)S(=O)(=O)c1ccc(C(=O)Nc2ccc(C)cn2)cc1 | -9.62
Cc1ccc(C2=NN(CC(=O)NCCC(C)C)C(=O)CC2)cc1 | 9.82
Cc1nnc(SCC(=O)Nc2ccc(S(=O)(=O)Nc3ccc(Cl)nn3)cc2)s1 | 13
Cc1cc(C(=O)Nc2cc(Br)ccc2O)on1 | 17.9
CN(C)S(=O)(=O)c1ccc(NC(=O)CN2C(=O)NC(Cc3ccccc3)C2=O)cc1 (stereo not drawn) | 8.7
COc1cc(/C=C/CN2CCC(CO)(CC3CCCCO3)CC2)ccc1O (stereo not drawn) | 12.8
Cc1ccc(NC(=O)c2ccc(CSc3nnc(C)s3)cc2)c(C)c1 | 9.08
CN(C)c1ccc(/C=N/Nc2ccc(-n3ccnc3)nn2)cc1 | -0.88
c1ccc(C2COC(c3cccs3)=N2)cc1 (stereo not drawn) | 4.09
C=C(Br)Cn1c(CC)nc2ccccc21 | 13.1
COC(=O)NC(=S)Nc1ccc(Oc2ccc(Cl)cc2Cl)c(Cl)c1 | 13.2
Cl.N[C@@H](Cc1c[nH]c2ccccc12)c1nnc(SCc2ccc(Cl)cc2)o1 | -3.36
